Data published in paper PMC9911399, “Two distinct binding modes provide the RNA-binding protein RbFox with extraordinary sequence specificity”.
Where a chain is given by its changes, count along the chain named. This is one part of the list.

T1: RBFOX1 RRM (Homo sapiens, UniProt Q9NWB1 109-208)
T1 sequence: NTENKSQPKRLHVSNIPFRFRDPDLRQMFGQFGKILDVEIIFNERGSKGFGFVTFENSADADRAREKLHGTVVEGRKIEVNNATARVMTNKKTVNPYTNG

B1: CCUAUAG (DNA:RNA)
RNA: GGGAGACCGGAAUUCAGAUUGUCCCCUAUAGUUAAAUCCCGUCGUAGCCACCA
DNA 1: CAATCTGAATTCCGGTCTCCC
DNA 2: TGGTGGCTACGACGGGATT
B2: UAGAAUG (DNA:RNA)
RNA: B1 RNA with C25U, C26A, U27G, U29A, A30U
DNA 1: CAATCTGAATTCCGGTCTCCC
DNA 2: TGGTGGCTACGACGGGATT
B3: GUCCACG (DNA:RNA)
RNA: B1 RNA with C25G, C26U, U27C, A28C, U29A, A30C
DNA 1: CAATCTGAATTCCGGTCTCCC
DNA 2: TGGTGGCTACGACGGGATT
B4: AGACAGG (DNA:RNA)
RNA: B1 RNA with C25A, C26G, U27A, A28C, U29A, A30G
DNA 1: CAATCTGAATTCCGGTCTCCC
DNA 2: TGGTGGCTACGACGGGATT
B5: CUCUUCC (DNA:RNA)
RNA: B1 RNA with C26U, U27C, A28U, A30C, G31C
DNA 1: CAATCTGAATTCCGGTCTCCC
DNA 2: TGGTGGCTACGACGGGATT
B6: CUUAAGU (DNA:RNA)
RNA: B1 RNA with C26U, U29A, A30G, G31U
DNA 1: CAATCTGAATTCCGGTCTCCC
DNA 2: TGGTGGCTACGACGGGATT
B7: AUUGUAU (DNA:RNA)
RNA: B1 RNA with C25A, C26U, A28G, G31U
DNA 1: CAATCTGAATTCCGGTCTCCC
DNA 2: TGGTGGCTACGACGGGATT
B8: CUAUCAU (DNA:RNA)
RNA: B1 RNA with C26U, U27A, A28U, U29C, G31U
DNA 1: CAATCTGAATTCCGGTCTCCC
DNA 2: TGGTGGCTACGACGGGATT
B9: GUGUGCA (DNA:RNA)
RNA: GGGAGACCGGAAUUCAGAUUGUCCGUGUGCAUUAAAUCCCGUCGUAGCCACCA
DNA 1: CAATCTGAATTCCGGTCTCCC
DNA 2: TGGTGGCTACGACGGGATT
B10: UUUGUGC (DNA:RNA)
RNA: B1 RNA with C25U, C26U, A28G, A30G, G31C
DNA 1: CAATCTGAATTCCGGTCTCCC
DNA 2: TGGTGGCTACGACGGGATT
B11: GAUGAAA (DNA:RNA)
RNA: B1 RNA with C25G, C26A, A28G, U29A, G31A
DNA 1: CAATCTGAATTCCGGTCTCCC
DNA 2: TGGTGGCTACGACGGGATT
B12: GAAUUUG (DNA:RNA)
RNA: B1 RNA with C25G, C26A, U27A, A28U, A30U
DNA 1: CAATCTGAATTCCGGTCTCCC
DNA 2: TGGTGGCTACGACGGGATT
B13: GCCGCUU (DNA:RNA)
RNA: B1 RNA with C25G, U27C, A28G, U29C, A30U, G31U
DNA 1: CAATCTGAATTCCGGTCTCCC
DNA 2: TGGTGGCTACGACGGGATT
B14: GCUUCGC (DNA:RNA)
RNA: B1 RNA with C25G, A28U, U29C, A30G, G31C
DNA 1: CAATCTGAATTCCGGTCTCCC
DNA 2: TGGTGGCTACGACGGGATT
B15: UCGCCUC (DNA:RNA)
RNA: B1 RNA with C25U, U27G, A28C, U29C, A30U, G31C
DNA 1: CAATCTGAATTCCGGTCTCCC
DNA 2: TGGTGGCTACGACGGGATT
B16: AUACUAA (DNA:RNA)
RNA: B1 RNA with C25A, C26U, U27A, A28C, G31A
DNA 1: CAATCTGAATTCCGGTCTCCC
DNA 2: TGGTGGCTACGACGGGATT
B17: UGAUGGU (DNA:RNA)
RNA: B9 RNA with G25U, U26G, G27A, C30G, A31U
DNA 1: CAATCTGAATTCCGGTCTCCC
DNA 2: TGGTGGCTACGACGGGATT
B18: GGUUAGC (DNA:RNA)
RNA: B9 RNA with U26G, G27U, G29A, C30G, A31C
DNA 1: CAATCTGAATTCCGGTCTCCC
DNA 2: TGGTGGCTACGACGGGATT
B19: AUAGGAG (DNA:RNA)
RNA: B1 RNA with C25A, C26U, U27A, A28G, U29G
DNA 1: CAATCTGAATTCCGGTCTCCC
DNA 2: TGGTGGCTACGACGGGATT
B20: GUGAUGC (DNA:RNA)
RNA: B9 RNA with U28A, G29U, C30G, A31C
DNA 1: CAATCTGAATTCCGGTCTCCC
DNA 2: TGGTGGCTACGACGGGATT
B21: GUUUUUA (DNA:RNA)
RNA: B9 RNA with G27U, G29U, C30U
DNA 1: CAATCTGAATTCCGGTCTCCC
DNA 2: TGGTGGCTACGACGGGATT
B22: AAGGAUA (DNA:RNA)
RNA: B9 RNA with G25A, U26A, U28G, G29A, C30U
DNA 1: CAATCTGAATTCCGGTCTCCC
DNA 2: TGGTGGCTACGACGGGATT
B23: CGUGACG (DNA:RNA)
RNA: B1 RNA with C26G, A28G, U29A, A30C
DNA 1: CAATCTGAATTCCGGTCTCCC
DNA 2: TGGTGGCTACGACGGGATT
B24: GUAGUCA (DNA:RNA)
RNA: B9 RNA with G27A, U28G, G29U
DNA 1: CAATCTGAATTCCGGTCTCCC
DNA 2: TGGTGGCTACGACGGGATT
B25: UGUCCCG (DNA:RNA)
RNA: B1 RNA with C25U, C26G, A28C, U29C, A30C
DNA 1: CAATCTGAATTCCGGTCTCCC
DNA 2: TGGTGGCTACGACGGGATT
B26: UCAGAUG (DNA:RNA)
RNA: B1 RNA with C25U, U27A, A28G, U29A, A30U
DNA 1: CAATCTGAATTCCGGTCTCCC
DNA 2: TGGTGGCTACGACGGGATT
B27: UAGAUCA (DNA:RNA)
RNA: B9 RNA with G25U, U26A, U28A, G29U
DNA 1: CAATCTGAATTCCGGTCTCCC
DNA 2: TGGTGGCTACGACGGGATT
B28: UUGUACC (DNA:RNA)
RNA: B9 RNA with G25U, G29A, A31C
DNA 1: CAATCTGAATTCCGGTCTCCC
DNA 2: TGGTGGCTACGACGGGATT
B29: ACUCACA (DNA:RNA)
RNA: B1 RNA with C25A, A28C, U29A, A30C, G31A
DNA 1: CAATCTGAATTCCGGTCTCCC
DNA 2: TGGTGGCTACGACGGGATT
B30: GUGGUUA (DNA:RNA)
RNA: B9 RNA with U28G, G29U, C30U
DNA 1: CAATCTGAATTCCGGTCTCCC
DNA 2: TGGTGGCTACGACGGGATT
B31: AAUGUAU (DNA:RNA)
RNA: B1 RNA with C25A, C26A, A28G, G31U
DNA 1: CAATCTGAATTCCGGTCTCCC
DNA 2: TGGTGGCTACGACGGGATT

The binders below were run against T1, RBFOX1 RRM (assay: EMSA; HiTS-Eq, 1 nM pool, 10 min; buffer printed only for the single-RNA assays: 10 mM Tris pH 7.5, 150 mM NaCl, 3.4 mM EDTA, 0.001% NP-40, 30 C). Details: tags: His6 N-terminal (pET28a); label: 5' 32P.
Outline: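 Purified RbFox RRM, wild type or mutant, was incubated for 10 min in 50 µL with 1 nM of a 5′-radiolabelled RNA pool carrying 7 randomized nucleotides, whose flanks were annealed to DNA oligonucleotides, over a series of increasing protein concentrations. Unbound RNA was resolved on 8% native PAGE, cut out, reverse-transcribed, barcoded by PCR and sequenced on an Illumina HiSeq 2500. Relative association constants were derived from changes in read counts for each RNA species versus the control reaction and normalised to the cognate motif.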
With B1 the binding signal was 0.00298 KA relative to UGCAUGU. In the case of B2, the binding signal is reported as 0.0313 KA relative to UGCAUGU. In the case of B3, the binding signal is reported as 0.00706 KA relative to UGCAUGU. In the case of B4, the binding signal is reported as 0.0143 KA relative to UGCAUGU. In the case of B5, the binding signal is reported as 0.00695 KA relative to UGCAUGU. With B6 the binding signal was 0.0108 KA relative to UGCAUGU. With B7 the binding signal was 0.00559 KA relative to UGCAUGU. B8 was tested, and the binding signal was 0.00202 KA relative to UGCAUGU. For B9, the binding signal was 0.0243 KA relative to UGCAUGU. In the case of B10, the binding signal is reported as 0.0313 KA relative to UGCAUGU. For B11, the binding signal was 0.013 KA relative to UGCAUGU. With B12 the binding signal was 0.0172 KA relative to UGCAUGU. B13 was tested, and the binding signal was 0.0151 KA relative to UGCAUGU. B14 was tested, and the binding signal was 0.0214 KA relative to UGCAUGU. With B15 the binding signal was 0.0134 KA relative to UGCAUGU. In the case of B16, the binding signal is reported as 0.00144 KA relative to UGCAUGU. With B17 the binding signal was 0.0198 KA relative to UGCAUGU. For B18, the binding signal was 0.00911 KA relative to UGCAUGU. In the case of B19, the binding signal is reported as 0.00387 KA relative to UGCAUGU. In the case of B20, the binding signal is reported as 0.0147 KA relative to UGCAUGU. B21 was tested, and the binding signal was 0.011 KA relative to UGCAUGU. B22 was tested, and the binding signal was 0.00452 KA relative to UGCAUGU. In the case of B23, the binding signal is reported as 0.00883 KA relative to UGCAUGU. With B24 the binding signal was 0.00813 KA relative to UGCAUGU. With B25 the binding signal was 0.0122 KA relative to UGCAUGU. For B26, the binding signal was 0.0141 KA relative to UGCAUGU. In the case of B27, the binding signal is reported as 0.0114 KA relative to UGCAUGU. For B28, the binding signal was 0.00863 KA relative to UGCAUGU. In the case of B29, the binding signal is reported as 0.000868 KA relative to UGCAUGU. With B30 the binding signal was 0.0127 KA relative to UGCAUGU. In the case of B31, the binding signal is reported as 0.00349 KA relative to UGCAUGU.
